# Assay results as given in the supplement of paper PMC4604168 (melanoma cell lines).
# The other results are listed elsewhere or left out. Repeats are few or missing, and single values can be far off.
# Tests used:
# Assay in all cases: cell count relative to DMSO control; melanoma cells; higher = more viable cells
# Conditions in all cases: library dose: low library concentration; 72 h
# MZ2-MEL = tested on: MZ2-MEL
# MeWo = tested on: MeWo
# RPMI7951 = tested on: RPMI7951
# RVH-421 = tested on: RVH-421
# SkMel28 = tested on: SkMel28
# SkMel2 = tested on: SkMel2
# SkMel30 = tested on: SkMel30
# UACC62 = tested on: UACC62
# 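Further: cell number obtained by counting DAPI-stained nuclei in high-throughput microscope images with image analysis software, screen run in 1,536-well plates.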
Compound,cell count (MZ2-MEL),cell count (MeWo),cell count (RPMI7951),cell count (RVH-421),cell count (SkMel28),cell count (SkMel2),cell count (SkMel30),cell count (UACC62)
"COc1ccc(C2=N[C@@H](c3ccc(Cl)cc3)[C@@H](c3ccc(Cl)cc3)N2C(=O)N2CCNC(=O)C2)c(OC(C)C)c1 [Nutlin-3] + CS(=O)(=O)CCNCc1ccc(-c2ccc3ncnc(Nc4ccc(OCc5cccc(F)c5)c(Cl)c4)c3c2)o1 [lapatinib] (first compound 0.1 µM, partner dose 0.8 µM)",105%,113%,118%,86.7%,106%,99.1%,98.6%,90.2%
"Cc1cn(-c2cc(NC(=O)c3ccc(C)c(Nc4nccc(-c5cccnc5)n4)c3)cc(C(F)(F)F)c2)cn1 [nilotinib] + CS(=O)(=O)CCNCc1ccc(-c2ccc3ncnc(Nc4ccc(OCc5cccc(F)c5)c(Cl)c4)c3c2)o1 [lapatinib] (first compound 0.2 µM, partner dose 0.8 µM)",91.8%,90.5%,74.9%,98.8%,82.2%,109%,89.8%,98.1%
"Cc1cn(-c2cc(NC(=O)c3ccc(C)c(Nc4nccc(-c5cccnc5)n4)c3)cc(C(F)(F)F)c2)cn1 [nilotinib] + NC(=O)c1ccc(N(C(N)=O)c2c(F)cccc2F)nc1-c1ccc(F)cc1F [VX702] (first compound 0.2 µM, partner dose 0.4 µM)",87.5%,113%,71%,121%,104%,95.2%,83.9%,74.7%
"CC(C)C[C@H](NC(=O)[C@H](Cc1ccccc1)NC(=O)c1cnccn1)B(O)O [Bortezomib] + Cc1nc(Nc2ncc(C(=O)Nc3c(C)cccc3Cl)s2)cc(N2CCN(CCO)CC2)n1 [dasatanib] (first compound 0.001 µM, partner dose 0.004 µM)",54.8%,73.7%,63.2%,81.5%,77.2%,103%,58.8%,60.1%
"Cc1cn(-c2cc(NC(=O)c3ccc(C)c(Nc4nccc(-c5cccnc5)n4)c3)cc(C(F)(F)F)c2)cn1 [nilotinib] + Cc1cc(Nc2cc(N3CCN(C)CC3)nc(/C=C/c3ccccc3)n2)n[nH]1 [ENMD2076] (first compound 0.2 µM, partner dose 0.04 µM)",102%,105%,92%,70.3%,98.2%,69.6%,115%,85.4%
"COc1ccc(C2=N[C@@H](c3ccc(Cl)cc3)[C@@H](c3ccc(Cl)cc3)N2C(=O)N2CCNC(=O)C2)c(OC(C)C)c1 [Nutlin-3] + COc1ccc(Cl)c(Nc2nc3ccccc3nc2NS(=O)(=O)c2cccc(NC(=O)C(C)(C)N)c2)c1 [XL147] (first compound 0.1 µM, partner dose 0.8 µM)",99.2%,97.3%,106%,83.1%,93.2%,106%,92.6%,84.9%
"CC(C)C[C@H](NC(=O)[C@H](Cc1ccccc1)NC(=O)c1cnccn1)B(O)O [Bortezomib] + CN1CCN(c2ccc3nc(-c4c(N)c5c(F)cccc5[nH]c4=O)[nH]c3c2)CC1 [Dovitinib] (first compound 0.001 µM, partner dose 0.1 µM)",31.9%,67.9%,37.4%,33%,91%,91.3%,50.2%,61.6%
"Cc1cc(Nc2cc(N3CCN(C)CC3)nc(/C=C/c3ccccc3)n2)n[nH]1 + CS(=O)(=O)CCNCc1ccc(-c2ccc3ncnc(Nc4ccc(OCc5cccc(F)c5)c(Cl)c4)c3c2)o1 [lapatinib] (first compound 0.04 µM, partner dose 0.8 µM)",89.7%,86%,70.1%,104%,79.4%,91.7%,102%,93.8%
"Cc1cc(Nc2cc(N3CCN(C)CC3)nc(/C=C/c3ccccc3)n2)n[nH]1 + CN1CCN(c2ccc3nc(-c4c(N)c5c(F)cccc5[nH]c4=O)[nH]c3c2)CC1 [Dovitinib] (first compound 0.04 µM, partner dose 0.1 µM)",88.3%,93.4%,105%,85.1%,95%,92.7%,67.3%,89.5%
"Cn1c(=O)n(-c2ccc(C(C)(C)C#N)cc2)c2c3cc(-c4cnc5ccccc5c4)ccc3ncc21 + Cc1nc(Nc2ncc(C(=O)Nc3c(C)cccc3Cl)s2)cc(N2CCN(CCO)CC2)n1 [dasatanib] (first compound 0.004 µM, partner dose 0.004 µM)",78.9%,86.2%,64.7%,93.7%,76.8%,85.8%,73.1%,87.3%
"COc1ccc(C2=N[C@@H](c3ccc(Cl)cc3)[C@@H](c3ccc(Cl)cc3)N2C(=O)N2CCNC(=O)C2)c(OC(C)C)c1 [Nutlin-3] + Cc1cc(Nc2cc(N3CCN(C)CC3)nc(/C=C/c3ccccc3)n2)n[nH]1 [ENMD2076] (first compound 0.1 µM, partner dose 0.04 µM)",99.8%,94.3%,90.8%,86.3%,93.4%,104%,84.2%,58.5%
"Cc1cc(Nc2cc(N3CCN(C)CC3)nc(/C=C/c3ccccc3)n2)n[nH]1 + C=CCNC1=C2C[C@@H](C)C[C@H](OC)[C@H](O)[C@@H](C)/C=C(\C)[C@H](OC(N)=O)[C@@H](OC)/C=C\C=C(/C)C(=O)NC(=CC1=O)C2=O [Tanespimycin] (first compound 0.04 µM, partner dose 0.002 µM)",102%,91.2%,77.3%,91.9%,95.9%,94%,99.6%,87.7%
"Cc1cc(Nc2cc(N3CCN(C)CC3)nc(/C=C/c3ccccc3)n2)n[nH]1 + C[C@]1(c2nc3c(C(N)=O)cccc3[nH]2)CCCN1 [Veliparib] (first compound 0.04 µM, partner dose 1.4 µM)",98.1%,93%,98.7%,80.3%,81.6%,113%,107%,79.3%
"Cc1cn(-c2cc(NC(=O)c3ccc(C)c(Nc4nccc(-c5cccnc5)n4)c3)cc(C(F)(F)F)c2)cn1 [nilotinib] + Cn1c(=O)n(-c2ccc(C(C)(C)C#N)cc2)c2c3cc(-c4cnc5ccccc5c4)ccc3ncc21 [NVP-BEZ235] (first compound 0.2 µM, partner dose 0.004 µM)",108%,89.2%,90.9%,92.7%,110%,86.6%,89.1%,112%
"Cc1cn(-c2cc(NC(=O)c3ccc(C)c(Nc4nccc(-c5cccnc5)n4)c3)cc(C(F)(F)F)c2)cn1 [nilotinib] + OCc1c[nH]c2ccccc12 [Indole-3-carbinol] (first compound 0.2 µM, partner dose 0.8 µM)",87%,95.9%,88.1%,90.3%,113%,94%,78%,84%
"COc1ccc(C2=N[C@@H](c3ccc(Cl)cc3)[C@@H](c3ccc(Cl)cc3)N2C(=O)N2CCNC(=O)C2)c(OC(C)C)c1 [Nutlin-3] + OCc1c[nH]c2ccccc12 [Indole-3-carbinol] (first compound 0.1 µM, partner dose 0.8 µM)",101%,88.2%,82.7%,87.9%,85.3%,101%,109%,80.1%
"Cc1cn(-c2cc(NC(=O)c3ccc(C)c(Nc4nccc(-c5cccnc5)n4)c3)cc(C(F)(F)F)c2)cn1 [nilotinib] + Cc1nc(Nc2ncc(C(=O)Nc3c(C)cccc3Cl)s2)cc(N2CCN(CCO)CC2)n1 [dasatanib] (first compound 0.2 µM, partner dose 0.004 µM)",92.7%,93.8%,66.9%,140%,79.6%,112%,80.3%,77.1%
"CC(C)C[C@H](NC(=O)[C@H](Cc1ccccc1)NC(=O)c1cnccn1)B(O)O [Bortezomib] + CS(=O)(=O)CCNCc1ccc(-c2ccc3ncnc(Nc4ccc(OCc5cccc(F)c5)c(Cl)c4)c3c2)o1 [lapatinib] (first compound 0.001 µM, partner dose 0.8 µM)",67%,82.1%,68.9%,56.4%,114%,108%,68.3%,94.5%
"COc1ccc(C2=N[C@@H](c3ccc(Cl)cc3)[C@@H](c3ccc(Cl)cc3)N2C(=O)N2CCNC(=O)C2)c(OC(C)C)c1 [Nutlin-3] + CCCS(=O)(=O)Nc1ccc(F)c(C(=O)c2c[nH]c3ncc(Cl)cc23)c1F [PLX4720] (first compound 0.1 µM, partner dose 0.08 µM)",93.4%,94.7%,108%,80.1%,95.8%,89.9%,120%,80.4%
"COc1ccc(C2=N[C@@H](c3ccc(Cl)cc3)[C@@H](c3ccc(Cl)cc3)N2C(=O)N2CCNC(=O)C2)c(OC(C)C)c1 [Nutlin-3] + CC(=O)c1c(C)c2cnc(Nc3ccc(N4CCNCC4)cn3)nc2n(C2CCCC2)c1=O [palbociclib] (first compound 0.1 µM, partner dose 0.04 µM)",81.2%,88.4%,80.2%,83%,96.9%,93.4%,87.4%,82.9%
"Cn1c(=O)n(-c2ccc(C(C)(C)C#N)cc2)c2c3cc(-c4cnc5ccccc5c4)ccc3ncc21 + Nc1ncn([C@H]2C[C@H](O)[C@@H](CO)O2)c(=O)n1 [decitabine] (first compound 0.004 µM, partner dose 0.1 µM)",82.6%,78.1%,92.6%,84%,74.7%,95.2%,81.1%,78.5%
